# Assay results from the supplement of paper PMC8728848.
# The other results are listed elsewhere or left out.
# B1: Nc3LysM (protein)
# chain: QFTVPPDTTAEPNTIKTCTWWHVAGSGDSCTSIASTYGITSEQFARWDMETTDSPKNPSVATACKLTVGNSYCIENNFGQDDPPTPSISSSTLIGTATTSTTASTTTGNGISTPTPIQEGMETATTTTSSGNGITTPTPTQAGMETVGNCDRFHLVKSGDQCGTIASTYGITLANFYSWNPAVGTSCQSLWLDTYVCVRTIGFVPPKTTTTTTKKPTSTTSAGGVATPTPTQPGMETVSGCKKFHKGRGNVSTVASGDQCGTIATRYGISLANFYSWNPAVGSSCQTLWLDYYVCVGR
# What was measured:
# Assay in all cases: glycan array binding signal (z-score within array); higher = stronger binding
# Details in all cases: glycan notation: IUPAC condensed, linker removed
# [1] = biological target: GlcNAc(b1-2)[GlcNAc(b1-4)]Man(a1-3)[GlcNAc(b1-4)][GlcNAc(b1-2)[GlcNAc(b1-6)]Man(a1-6)]Man(b1-4)GlcNAc(b1-4)GlcNAc
# Method in brief: (§1)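 Glycan array data were curated from 3228 arrays in the Consortium for Functional Glycomics database and kept only where the protein sequence was available. Glycan names were converted to IUPAC-condensed notation, and columns mapping to the same glycan were averaged. The binding signal is a within-array Z-score, averaged across arrays of the same protein sequence at different concentrations or buffers and across linkers. Negative Z-scores can be read as non-binding.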
# [2] = biological target: GlcNAc(b1-2)[GlcNAc(b1-4)]Man(a1-3)[GlcNAc(b1-4)][GlcNAc(b1-2)[GlcNAc(b1-6)]Man(a1-6)]Man(b1-4)GlcNAc(b1-4)[Fuc(a1-6)]GlcNAc
# Method in brief: as §1
# [3] = biological target: GlcNAc(b1-2)[GlcNAc(b1-6)]Man(a1-6)[GlcNAc(b1-2)Man(a1-3)]Man(b1-4)GlcNAc(b1-4)GlcNAc
# Method in brief: as §1
# [4] = biological target: GlcNAc(b1-2)[GlcNAc(b1-6)]Man(a1-6)[GlcNAc(b1-2)Man(a1-3)]Man(b1-4)GlcNAc(b1-4)[Fuc(a1-6)]GlcNAc
# Method in brief: as §1
# [5] = biological target: GlcNAc(b1-2)[GlcNAc(b1-6)]Man(a1-6)[GlcNAc(b1-4)][GlcNAc(b1-2)Man(a1-3)]Man(b1-4)GlcNAc(b1-4)GlcNAc
# Method in brief: as §1
# GlcNAc(b1-3)Fuc = biological target: GlcNAc(b1-3)Fuc
# Method in brief: as §1
# GlcNAc(b1-3)Gal = biological target: GlcNAc(b1-3)Gal
# Method in brief: as §1
# [6] = biological target: GlcNAc(b1-3)Gal(b1-3)GalNAc
# Method in brief: as §1
# GlcNAc(b1-3)Gal(b1-4)Glc = biological target: GlcNAc(b1-3)Gal(b1-4)Glc
# Method in brief: as §1
# [7] = biological target: GlcNAc(b1-3)Gal(b1-4)GlcNAc
# Method in brief: as §1
# [8] = biological target: GlcNAc(b1-3)Gal(b1-4)GlcNAc(b1-2)Man(a1-3)[GlcNAc(b1-3)Gal(b1-4)GlcNAc(b1-2)Man(a1-6)]Man(b1-4)GlcNAc(b1-4)GlcNAc
# Method in brief: as §1
# [9] = biological target: GlcNAc(b1-3)Gal(b1-4)GlcNAc(b1-2)Man(a1-3)[GlcNAc(b1-3)Gal(b1-4)GlcNAc(b1-2)Man(a1-6)]Man(b1-4)GlcNAc(b1-4)[Fuc(a1-6)]GlcNAc
# Method in brief: as §1
# [10] = biological target: GlcNAc(b1-3)Gal(b1-4)GlcNAc(b1-2)[GlcNAc(b1-3)Gal(b1-4)GlcNAc(b1-6)]Man(a1-6)[GlcNAc(b1-3)Gal(b1-4)GlcNAc(b1-2)Man(a1-3)]Man(b1-4)GlcNAc(b1-4)GlcNAc
# Method in brief: as §1
# [11] = biological target: GlcNAc(b1-3)Gal(b1-4)GlcNAc(b1-3)Gal(b1-4)GlcNAc
# Method in brief: as §1
# [12] = biological target: GlcNAc(b1-3)Gal(b1-4)GlcNAc(b1-3)Gal(b1-4)GlcNAc(b1-2)Man(a1-3)[GlcNAc(b1-3)Gal(b1-4)GlcNAc(b1-3)Gal(b1-4)GlcNAc(b1-2)Man(a1-6)]Man(b1-4)GlcNAc(b1-4)GlcNAc
# Method in brief: as §1
# [13] = biological target: GlcNAc(b1-3)Gal(b1-4)GlcNAc(b1-3)Gal(b1-4)GlcNAc(b1-2)Man(a1-3)[GlcNAc(b1-3)Gal(b1-4)GlcNAc(b1-3)Gal(b1-4)GlcNAc(b1-2)Man(a1-6)]Man(b1-4)GlcNAc(b1-4)[Fuc(a1-6)]GlcNAc
# Method in brief: as §1
# [14] = biological target: GlcNAc(b1-3)Gal(b1-4)GlcNAc(b1-3)Gal(b1-4)GlcNAc(b1-2)[GlcNAc(b1-3)Gal(b1-4)GlcNAc(b1-3)Gal(b1-4)GlcNAc(b1-6)]Man(a1-6)[GlcNAc(b1-3)Gal(b1-4)GlcNAc(b1-3)Gal(b1-4)GlcNAc(b1-2)Man(a1-3)]Man(b1-4)GlcNAc(b1-4)[Fuc(a1-6)]GlcNAc
# Method in brief: as §1
# [15] = biological target: GlcNAc(b1-3)Gal(b1-4)GlcNAc(b1-3)Gal(b1-4)GlcNAc(b1-3)Gal(b1-4)GlcNAc(b1-2)Man(a1-3)[GlcNAc(b1-3)Gal(b1-4)GlcNAc(b1-3)Gal(b1-4)GlcNAc(b1-3)Gal(b1-4)GlcNAc(b1-2)Man(a1-6)]Man(b1-4)GlcNAc(b1-4)GlcNAc
# Method in brief: as §1
# [16] = biological target: GlcNAc(b1-3)Gal(b1-4)GlcNAc(b1-3)Gal(b1-4)GlcNAc(b1-3)Gal(b1-4)GlcNAc(b1-2)Man(a1-3)[GlcNAc(b1-3)Gal(b1-4)GlcNAc(b1-3)Gal(b1-4)GlcNAc(b1-3)Gal(b1-4)GlcNAc(b1-2)Man(a1-6)]Man(b1-4)GlcNAc(b1-4)[Fuc(a1-6)]GlcNAc
# Method in brief: as §1
# [17] = biological target: GlcNAc(b1-3)Gal(b1-4)GlcNAc(b1-3)Gal(b1-4)GlcNAc(b1-3)Gal(b1-4)GlcNAc(b1-2)[GlcNAc(b1-3)Gal(b1-4)GlcNAc(b1-3)Gal(b1-4)GlcNAc(b1-3)Gal(b1-4)GlcNAc(b1-6)]Man(a1-6)[GlcNAc(b1-3)Gal(b1-4)GlcNAc(b1-3)Gal(b1-4)GlcNAc(b1-3)Gal(b1-4)GlcNAc(b1-2)Man(a1-3)]Man(b1-4)GlcNAc(b1-4)[Fuc(a1-6)]GlcNAc
# Method in brief: as §1
# [18] = biological target: GlcNAc(b1-3)Gal(b1-4)GlcNAc(b1-3)Gal(b1-4)GlcNAc(b1-3)Gal(b1-4)GlcNAc(b1-3)Gal(b1-4)GlcNAc(b1-2)Man(a1-3)[GlcNAc(b1-3)Gal(b1-4)GlcNAc(b1-3)Gal(b1-4)GlcNAc(b1-3)Gal(b1-4)GlcNAc(b1-3)Gal(b1-4)GlcNAc(b1-2)Man(a1-6)]Man(b1-4)GlcNAc(b1-4)GlcNAc
# Method in brief: as §1
# [19] = biological target: GlcNAc(b1-3)Gal(b1-4)GlcNAc(b1-3)Gal(b1-4)GlcNAc(b1-3)Gal(b1-4)GlcNAc(b1-3)Gal(b1-4)GlcNAc(b1-2)Man(a1-3)[GlcNAc(b1-3)Gal(b1-4)GlcNAc(b1-3)Gal(b1-4)GlcNAc(b1-3)Gal(b1-4)GlcNAc(b1-3)Gal(b1-4)GlcNAc(b1-2)Man(a1-6)]Man(b1-4)GlcNAc(b1-4)[Fuc(a1-6)]GlcNAc
# Method in brief: as §1
# [20] = biological target: GlcNAc(b1-3)Gal(b1-4)GlcNAc(b1-3)Gal(b1-4)GlcNAc(b1-3)Gal(b1-4)GlcNAc(b1-3)Gal(b1-4)GlcNAc(b1-2)[GlcNAc(b1-3)Gal(b1-4)GlcNAc(b1-3)Gal(b1-4)GlcNAc(b1-3)Gal(b1-4)GlcNAc(b1-3)Gal(b1-4)GlcNAc(b1-6)]Man(a1-6)[GlcNAc(b1-3)Gal(b1-4)GlcNAc(b1-3)Gal(b1-4)GlcNAc(b1-3)Gal(b1-4)GlcNAc(b1-3)Gal(b1-4)GlcNAc(b1-2)Man(a1-3)]Man(b1-4)GlcNAc(b1-4)[Fuc(a1-6)]GlcNAc
# Method in brief: as §1
# [21] = biological target: GlcNAc(b1-3)Gal(b1-4)GlcNAc(b1-3)Gal(b1-4)GlcNAc(b1-3)GalNAc
# Method in brief: as §1
# [22] = biological target: GlcNAc(b1-3)Gal(b1-4)GlcNAc(b1-3)GalNAc
# Method in brief: as §1
# [23] = biological target: GlcNAc(b1-3)Gal(b1-4)GlcNAc(b1-3)[GlcNAc(b1-3)Gal(b1-4)GlcNAc(b1-3)]GalNAc
# Method in brief: as §1
# [24] = biological target: GlcNAc(b1-3)Gal(b1-4)GlcNAc(b1-6)[Gal(b1-3)]GalNAc
# Method in brief: as §1
# [25] = biological target: GlcNAc(b1-3)Gal(b1-4)GlcNAc(b1-6)[GlcNAc(b1-3)Gal(b1-3)]GalNAc
# Method in brief: as §1
# [26] = biological target: GlcNAc(b1-3)Gal(b1-4)GlcNAc(b1-6)[GlcNAc(b1-3)]Gal(b1-4)GlcNAc
# Method in brief: as §1
# GlcNAc(b1-3)GalNAc = biological target: GlcNAc(b1-3)GalNAc
# Method in brief: as §1
# GlcNAc(b1-3)Man = biological target: GlcNAc(b1-3)Man
# Method in brief: as §1
# [27] = biological target: GlcNAc(b1-3)[GlcNAc(b1-4)][GlcNAc(b1-6)]GlcNAc
# Method in brief: as §1
# [28] = biological target: GlcNAc(b1-3)[GlcNAc(b1-6)]Gal(b1-4)GlcNAc
# Method in brief: as §1
# [29] = biological target: GlcNAc(b1-3)[GlcNAc(b1-6)]GalNAc
# Method in brief: as §1
# [30] = biological target: GlcNAc(b1-4)Gal(b1-4)GlcNAc
# Method in brief: as §1
# GlcNAc(b1-4)GlcNAc = biological target: GlcNAc(b1-4)GlcNAc
# Method in brief: as §1
# [31] = biological target: GlcNAc(b1-4)GlcNAc(b1-4)GlcNAc
# Method in brief: as §1
# [32] = biological target: GlcNAc(b1-4)GlcNAc(b1-4)GlcNAc(b1-4)GlcNAc(b1-4)GlcNAc
# Method in brief: as §1
binder,measurement,setting,value
B1,glycan array binding signal (z-score),[1],-0.326
same,glycan array binding signal (z-score),[2],-0.023
same,glycan array binding signal (z-score),[3],-0.148
same,glycan array binding signal (z-score),[4],-0.037
same,glycan array binding signal (z-score),[5],-0.189
same,glycan array binding signal (z-score),GlcNAc(b1-3)Fuc,-0.168
same,glycan array binding signal (z-score),GlcNAc(b1-3)Gal,-0.143
same,glycan array binding signal (z-score),[6],0.075
same,glycan array binding signal (z-score),GlcNAc(b1-3)Gal(b1-4)Glc,-0.132
same,glycan array binding signal (z-score),[7],-0.033
same,glycan array binding signal (z-score),[8],-0.218
same,glycan array binding signal (z-score),[9],0.028
same,glycan array binding signal (z-score),[10],-0.201
same,glycan array binding signal (z-score),[11],-0.131
same,glycan array binding signal (z-score),[12],0.008
same,glycan array binding signal (z-score),[13],0.093
same,glycan array binding signal (z-score),[14],-0.011
same,glycan array binding signal (z-score),[15],-0.013
same,glycan array binding signal (z-score),[16],0.146
same,glycan array binding signal (z-score),[17],0.072
same,glycan array binding signal (z-score),[18],-0.036
same,glycan array binding signal (z-score),[19],-0.089
same,glycan array binding signal (z-score),[20],0.075
same,glycan array binding signal (z-score),[21],0.002
same,glycan array binding signal (z-score),[22],-0.022
same,glycan array binding signal (z-score),[23],-0.308
same,glycan array binding signal (z-score),[24],-0.184
same,glycan array binding signal (z-score),[25],-0.251
same,glycan array binding signal (z-score),[26],0.184
same,glycan array binding signal (z-score),GlcNAc(b1-3)GalNAc,0.056
same,glycan array binding signal (z-score),GlcNAc(b1-3)Man,0.172
same,glycan array binding signal (z-score),[27],-0.087
same,glycan array binding signal (z-score),[28],-0.279
same,glycan array binding signal (z-score),[29],-0.162
same,glycan array binding signal (z-score),[30],0.016
same,glycan array binding signal (z-score),GlcNAc(b1-4)GlcNAc,-0.028
same,glycan array binding signal (z-score),[31],2.52
same,glycan array binding signal (z-score),[32],17.3
